In the supplement of paper PMC4166925:
± gives the standard deviation of the averaged measurements. Whole data set: some 33,000 sequences, median “E-score (dimensionless, -0.5 to 0.5)” near -0.046, cut for the highest 2% near 0.36. The list shows a part of the results.

Tested on: T1, SpTbr T-box DNA-binding domain (GST fusion)
T1 sequence: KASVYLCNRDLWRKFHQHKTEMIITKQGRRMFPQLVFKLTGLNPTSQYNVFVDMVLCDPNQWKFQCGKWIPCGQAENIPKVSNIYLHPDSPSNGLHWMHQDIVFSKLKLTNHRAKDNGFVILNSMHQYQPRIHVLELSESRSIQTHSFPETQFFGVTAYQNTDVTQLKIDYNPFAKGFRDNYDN
Test: PBM E-score of 8-mer (E-score (dimensionless, -0.5 to 0.5)); Tbr is Tbrain of the sea star Patiria miniata (Pm) or the sea urchin Strongylocentrotus purpuratus (Sp); higher = stronger binding preference; most listed sequences are background and not binding sites
Conditions: the construct has about 5 more residues each side
Method: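 Universal protein-binding microarray (Agilent AMADID 016060, 60-bp probes with a 35-bp variable region) incubated with 200 nM GST-fused Strongylocentrotus purpuratus Tbr T-box DNA-binding domain (residues 362-554) in PBS pH 7.5. Scored for every ungapped 8-mer (given with its reverse complement) as E-score (range -0.5 to 0.5; >0.45 counts as bound) and Z-score of median probe intensity. Two replicate arrays (datasets 1 and 2).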
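Also: protein at 200 nM in PBS on universal double-stranded arrays.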

Sequence	PBM E-score of 8-mer
CTCAAGAA	-0.0625 ± 0.0062
AAGCCGCC	0.0307 ± 0.071
ACTAAGGG	-0.0651 ± 0.032
AGAGTACC	-0.133 ± 0.0056
AGCAGTTA	0.0617 ± 0.0055
CTTCTCTA	-0.233 ± 0.03
AATACCTC	0.0526 ± 0.03
CATAGTCC	-0.201 ± 0.065
AGAACCAT	-0.0566 ± 0.0026
GATCTGCA	0.0461 ± 0.029
TAATTTAA	-0.13 ± 0.05
ACGCAAGC	-0.101 ± 0.061
TCTTCTAA	-0.0518 ± 0.034
ATGATCAC	0.1861 ± 0.0015
AACATATT	0.0877 ± 0.062
GGTCATTA	-0.167 ± 0.028
CACCGTGA	0.251 ± 0.026
ACGCCGCT	-0.0528 ± 0.055
ACCCGCAG	-0.121 ± 0.017
AAACCTAC	-0.181 ± 0.039
ACGGAAGT	0.0353 ± 0.024
CGGATGTC	-0.0222 ± 0.052
CCGTCACC	0.345 ± 0.011
ACATCAGG	-0.239 ± 0.0075
AGAGGGCT	-0.165 ± 0.024

Sequence	PBM E-score of 8-mer
AACGTTCT	-0.0291 ± 0.0098
ATGCCATA	-0.0797 ± 0.018
ATTTAGGG	-0.217 ± 0.011
AGGATACT	-0.149 ± 0.052
ACGCATTA	0.162 ± 0.012
AGAATAGA	-0.133 ± 0.069
ACCAGCAT	-0.156 ± 0.068
ATTGTTTG	0.0143 ± 0.016
TCAGTTCA	-0.187 ± 0.037
AACCCTGT	-0.103 ± 0.012
ACTTGCAA	0.292 ± 0.01
AAGGTAAC	0.0373 ± 0.0052
TGGGCACA	-0.0899 ± 0.027
ATGGGCAA	-0.163 ± 0.025
GATTGCTA	0.0673 ± 0.018
AGCCCTTG	-0.143 ± 0.007
TAGATCGA	-0.213 ± 0.01
GGGAGAAC	0.0492 ± 0.0062
AAAAAAGC	-0.111 ± 0.066
CACTATCC	-0.0307 ± 0.042
CCGATGGC	0.00432 ± 0.043
GATCGGCA	0.0183 ± 0.072
TCGACAGA	0.207 ± 0.017
CGCGACCC	0.21 ± 0.048
TGCTAAAA	0.28 ± 0.041

Sequence	PBM E-score of 8-mer
CAATTCTG	0.0621 ± 0.042
GCTGAATA	-0.119 ± 0.038
AATGGTCA	0.00929 ± 0.068
ATAATTTA	0.0201 ± 0.038
ACGTCCAG	-0.0813 ± 0.0011
AGAAGACT	-0.285 ± 0.046
CATTTGCG	0.0339 ± 0.023
AGTGCGAA	0.47263 ± 0.00019
CTAGCCAA	-0.054 ± 0.036
AATACTCT	-0.0612 ± 0.0012
ATCCCTCA	-0.033 ± 0.011
TACGTTAA	0.00349 ± 0.068
AGAATCTC	-0.09 ± 0.0084
CGTACCCA	-0.102 ± 0.027
GCTCATTA	-0.0876 ± 0.014
ATTACGGC	-0.0536 ± 0.027
GTTGGAAA	-0.00285 ± 0.039
ATAGGAAC	-0.223 ± 0.037
GGTATACA	0.123 ± 0.048
CCGGCCCG	-0.23 ± 0.028
AAACAGAG	-0.054 ± 0.018
ATACCTTG	-0.0457 ± 0.019
AGGCATAT	-0.271 ± 0.0056
GGGTTCCA	-0.161 ± 0.0024
ACTGCAGG	-0.128 ± 0.0053

Sequence	PBM E-score of 8-mer
GAGCCCTC	-0.109 ± 0.0089
GTGCTATA	0.0851 ± 0.12
CTTCAAGC	-0.184 ± 0.079
CAGAGTTA	0.0747 ± 0.026
CGACCGTA	-0.191 ± 0.024
ACGATTGA	0.0613 ± 0.013
CCACCCGA	0.172 ± 0.083
CCCATGGA	-0.276 ± 0.0047
CATTGAAA	-0.151 ± 0.0056
GCCGCTAA	0.101 ± 0.035
AGCTGTAC	-0.0895 ± 0.0019
ATTCATGG	-0.0573 ± 0.016
CAATTCTA	-0.0485 ± 0.031
ACCTGCAA	0.175 ± 0.031
CGCCAAGA	0.0666 ± 0.023
ATACATGA	-0.0733 ± 0.02
AAGTTCTA	-0.182 ± 0.063
CGACCTTA	-0.237 ± 0.008
AATAGGTA	-0.0758 ± 0.075
AAAACCAT	-0.0372 ± 0.053
AGATGTGC	0.161 ± 0.011
TTATTGAA	-0.142 ± 0.024
CGGTGGCA	0.186 ± 0.053
GCACCACA	0.191 ± 0.056
TAACGAGA	0.0423 ± 0.028

Sequence	PBM E-score of 8-mer
AGCACCAG	0.0212 ± 0.037
CCGCCTCC	0.0266 ± 0.06
ACGCCAGG	0.122 ± 0.0013
AACTTACT	-0.137 ± 0.088
GGAATGCC	-0.187 ± 0.06
TCATCTCA	0.0482 ± 0.019
CCGATGTC	-0.119 ± 0.12
CAGCTAAC	0.101 ± 0.026
ACACTGGG	-0.0645 ± 0.024
ATATCTTA	0.0462 ± 0.021
ACCTAGGA	0.0169 ± 0.036
GCCGGCAA	-0.0272 ± 0.043
AAAGGGAG	-0.0934 ± 0.0065
CTATTGTA	-0.333 ± 0.0049
CGCTTGTA	-0.0247 ± 0.089
GAGTCACC	0.0765 ± 0.03
AATACGGA	-0.171 ± 0.016
GGCGCCTA	0.0174 ± 0.061
CTTTGTTC	-0.131 ± 0.026
AACGAGAG	-0.146 ± 0.019
TAGAGCTA	-0.135 ± 0.041
AGATTAAT	-0.0533 ± 0.075
CCCACGGA	-0.334 ± 0.046
AAGGGTGT	0.383 ± 0.015
ATGGTACG	-0.179 ± 0.089

Sequence	PBM E-score of 8-mer
GGTCTCAC	0.3458 ± 0.0029
AATTCGTG	-0.0695 ± 0.04
ATGCACAC	0.231 ± 0.05
CATGATAG	-0.193 ± 0.025
CAAAGCGA	-0.0477 ± 0.082
CCTTGCTC	0.0297 ± 0.044
CGAACTTC	-0.0592 ± 0.019
CTAAGCGC	-0.0678 ± 0.024
CAGCCTGC	-0.0414 ± 0.014
AAGGACGG	-0.342 ± 0.054
ACAAGCAA	0.0484 ± 0.082
CCGTTCCG	-0.176 ± 0.021
CGATGTAC	-0.0535 ± 0.057
ACCCCAGA	-0.00795 ± 0.0064
AGCTGCCG	0.0367 ± 0.019
AGACCCAG	-0.1 ± 0.012
GTCTACAA	-0.0203 ± 0.07
ACCCGCCA	0.16 ± 0.057
CTCGGACC	-0.177 ± 0.011
GAATAATC	-0.25 ± 0.026
CAGATTAA	-0.163 ± 0.099
AACCGTAA	-0.129 ± 0.067
GTCTGAAA	-0.0236 ± 0.086
GATTATAC	-0.0275 ± 0.013
AAGCCAGG	-0.254 ± 0.02

Sequence	PBM E-score of 8-mer
ATCCCCGC	-0.0328 ± 0.091
CTACTCGC	0.204 ± 0.0062
CCGACCAG	-0.235 ± 0.0047
TGCTGCAA	-0.0593 ± 0.055
ATAGGTGA	0.284 ± 0.032
CAGAGCAA	-0.326 ± 0.042
CCGGAACC	-0.3379 ± 0.0032
CATGACTC	-0.203 ± 0.017
CTGGTGCA	-0.0587 ± 0.0083
TGGCGGAA	0.00426 ± 0.036
TCCCCCAA	-0.0995 ± 0.0068
ACCGGAAA	-0.106 ± 0.0049
GGATTTAA	-0.255 ± 0.032
CTGTGATC	0.271 ± 0.031
AAATCTAT	-0.142 ± 0.0023
GCCCATAC	-0.131 ± 0.035
GACTGTCA	0.144 ± 0.037
CAAGGGAA	-0.249 ± 0.047
CTTTAATC	0.0648 ± 0.12
CAGAAGTC	0.00129 ± 0.0069
TATAGCAA	-0.00161 ± 0.023
ACCGCGCC	0.0224 ± 0.099
